Measurements reported in the RNAGym collection of RNA variant scans (doi:10.7554/elife.90254).
The source gives no read counts; variants with many changes may rest on few reads.

B1: LINE1-mini (parent)
chain: GGCAGAGCUCAACACAGCGUGGCAAAGUGGCUGUGGCUAGACUGCC

Variants of: B1
Assay: self-cleavage, relative activity (ratio to wild type); higher = more cleavage; in vitro, sequencing; the parent is a self-cleaving ribozyme
For GGCAGAGCUCUACACAGCGUGUCAAAGUGGUUGUGGCUAGCCUGCC [A11U G22U C31U A41C], the self-cleavage was 0.01.
GGCAGAGCUCAGCACAGCGUGGCUAAGUGGCUGGGGCUAGACUGCC [A12G A24U U34G] showed a self-cleavage of 0.01.
Variant GGCAGAGCUCAGCACAGCGUGGCAAGGUGACUUCUGCUAGAGUGCC [A12G A26G G30A G33U U34C G35U C42G] has a self-cleavage of 0.
For GGCAGAGCUCUACACAGCGGGGCAUAGUGGCUGUGGCUAGACUGCC [A11U U20G A25U], the self-cleavage was 0.07.
GGCAGAGCUCACCACUGCGUGGCAAAGUAGCUGUGGCUAGACUGCC [A12C A16U G29A] gave a self-cleavage of 0.
GGCAGAGCUCACCACAGCGUGGCAAAGUAGCUGUGGCUAGACUCCC [A12C G29A G44C] gave a self-cleavage of 0.
Variant GGCAGAGCUCACCACAGCUUGGCAAAGUGGCUGUUGCGACACUGCC [A12C G19U G35U U38G G40C] has a self-cleavage of 0.02.
In the case of GGCAGAGCUCACCACAGAGUGGCAAAGUGGCGGUGGCUAGACUGCC [A12C C18A U32G], the self-cleavage is reported as 0.01.
For GGCAGAGCUCAGCACAGCGUGGCAAAGUGGCUGUGGCUAGCCGGAU [A12G A41C U43G C45A C46U], the self-cleavage was 0.
Work on GGCAGAGCUCACCACUGCGUGGCAAUGUGGCUGUGGCUAGACUGCC [A12C A16U A26U] yielded a self-cleavage of 0.02.
GGCAGAGCUCACCACAGCUUGGCAAAGUGGCUGUGGCUAAACUGCC [A12C G19U G40A] gave a self-cleavage of 0.03.
With GGCAGAGCUCACCAUAGCGUUGUAAAGUGGCUGAGCCUAGCCUGCC [A12C C15U G21U C23U U34A G36C A41C] the self-cleavage was 0.01.
Work on GGCAGAGCUCACCACAGCGUGGCAGAGUGGCUGUGGAUGGACUGCC [A12C A25G C37A A39G] yielded a self-cleavage of 0.
With GGCAGAGCUCACCACAGCGUGGCAAAGUGGCUUUGUUUAGAAUGCC [A12C G33U G36U C37U C42A] the self-cleavage was 0.
For GGCAGAGCUCACCGCAGCGUGGCAAGGUGGCUGUGGCUAGACUGCC [A12C A14G A26G], the self-cleavage was 0.01.
Work on GGCAGAGCUCUACACAGCGUGUCAAAGUGGCUGUGGCUAGACCGCC [A11U G22U U43C] yielded a self-cleavage of 0.04.
GGCAGAGCUCUACACAGCGUGGCAAAGGGCCUGUGGCUUGACUGCC [A11U U28G G30C A39U] showed a self-cleavage of 0.01.
Work on GGCAGAGCUCACCACAGCGUGGCAAAGUGGCUGUGUUUAGACAGCC [A12C G36U C37U U43A] yielded a self-cleavage of 0.01.
In the case of GGCAGAGCUCACCACGGCGUGGCAAAGGGGCUGUGGCUAGACUGCC [A12C A16G U28G], the self-cleavage is reported as 0.
For GGCAGAGCUCACCACAGCGUGGCAAAGUGGCUGUGGCUCGAGUGCC [A12C A39C C42G], the self-cleavage was 0.03.
In the case of GGCAGAGCUCACCACAGCGUGACAAAGAGGCUGUGGCUAGACUGUC [A12C G22A U28A C45U], the self-cleavage is reported as 0.
Variant GGCAGAGCUCACCAAAGCGAGGCAAAGGGGCUGUGGCUAGACUGCC [A12C C15A U20A U28G] has a self-cleavage of 0.01.
With GGCAGAGCUCACCCCAGCGUGUCAAAGUGGCUAUGGCAAGACUACU [A12C A14C G22U G33A U38A G44A C46U] the self-cleavage was 0.
Variant GGCAGAGCUCUACACAGCGAGGCAAAAUGGCUGUGGCUAAACUCCC [A11U U20A G27A G40A G44C] has a self-cleavage of 0.03.
For GGCAGAGCUCACCACAGCGUGGCAAAGUGGCUGAGGCUAUACUGCA [A12C U34A G40U C46A], the self-cleavage was 0.
GGCAGAGCUCACCAUAGCGUGGCAAAUUGGCUGUGGCUAGACUACC [A12C C15U G27U G44A] showed a self-cleavage of 0.01.
For GGCAGAGCUCACUACAGCUUGGCAAACUAGCUAUGCCUAGACUGCC [A12C C13U G19U G27C G29A G33A G36C], the self-cleavage was 0.02.
For GGCAGAGCUCAGCACGGCGUGGCAUAGUGGGUGUGGCUAGACUGCC [A12G A16G A25U C31G], the self-cleavage was 0.02.
Work on GGCAGAGCUCAGAACAGCGUGGCAAAGUGGCUGUGGCUAGAAUGCC [A12G C13A C42A] yielded a self-cleavage of 0.01.
Work on GGCAGAGCUCUACACAGCGAGGAAAAGAGGCUGUGGCUUGACCGCC [A11U U20A C23A U28A A39U U43C] yielded a self-cleavage of 0.
Variant GGCAGAGCUCUACACAGCGUGGCAAAGGGGCUGUGUCUAGUCUGCC [A11U U28G G36U A41U] has a self-cleavage of 0.
Variant GGCAGAGCUCUACACAGCGUGGCAAAGUGGCUGUUCCUAGACUGGU [A11U G35U G36C C45G C46U] has a self-cleavage of 0.01.
For GGCAGAGCUCACUACAGCGUGGCAAAGUGGCUGUGGCUAGAGUGCC [A12C C13U C42G], the self-cleavage was 0.05.
For GGCAGAGCUCACCACAGCGUGGAAAAGUGGCUGCGACUAGACUGCC [A12C C23A U34C G36A], the self-cleavage was 0.02.
For GGCAGAGCUCACCACAGCGUGGCGAAGUGGCUAUGGCUAGACUGGC [A12C A24G G33A C45G], the self-cleavage was 0.01.
With GGCAGAGCUCACCACAGAGUGGCAAAGUGGCUGUGGCUAGAGUGCC [A12C C18A C42G] the self-cleavage was 0.03.
In the case of GGCAGAGCUCUACACAGCGUGACAAAUUGGUUGGGGCUAGACUGCC [A11U G22A G27U C31U U34G], the self-cleavage is reported as 0.
Work on GGCAGAGCUCACCAAAGCGUGGCAAACUAGCUAUGGCUGGACUGCC [A12C C15A G27C G29A G33A A39G] yielded a self-cleavage of 0.02.
GGCAGAGCUCACCACAGCGUGGCAAAGUGACUGUGGCUAGAAUGCC [A12C G30A C42A] gave a self-cleavage of 0.03.
Variant GGCAGAGCUCACCUCAGCGUGGCAAAGUGGCAGUGGCUAGACUGCC [A12C A14U U32A] has a self-cleavage of 0.05.
With GGCAGAGCUCAGCACCGCGUGGCAAACUGGCUGUGGCUAGACUUCC [A12G A16C G27C G44U] the self-cleavage was 0.1.
Work on GGCAGAGCUCACCACAGCGUGGCAAAGUGGCUGCGACUAGACUGCC [A12C U34C G36A] yielded a self-cleavage of 0.03.
With GGCAGAGCUCAGCACUGCGUGGCAGAGUGGCUUUGGCUAGACUGAG [A12G A16U A25G G33U C45A C46G] the self-cleavage was 0.
For GGCAGAGCUCUACACAGCGUGGCAAAGUGGCGGCGCCUAAACUGCC [A11U U32G U34C G36C G40A], the self-cleavage was 0.02.
Variant GGCAGAGCUCACCACAGCAUGGCCAAGUGGCUGUGGCUAGACUGCC [A12C G19A A24C] has a self-cleavage of 0.02.
GGCAGAGCUCACCACAGCUUGGCAAAGUGGGUGUGGCUAGACUGCC [A12C G19U C31G] showed a self-cleavage of 0.01.
Work on GGCAGAGCUCAGAACAGCGUGGCAAGGUGUCUGUGGCUAGACUGCC [A12G C13A A26G G30U] yielded a self-cleavage of 0.01.
GGCAGAGCUCAGGACAGUGUGGCAAAGUGGCUGUGGCUAGACUGCC [A12G C13G C18U] showed a self-cleavage of 0.01.
For GGCAGAGCUCACCUCAGCGUGGCAAAGUCGCUGUGGCUAGACUGCC [A12C A14U G29C], the self-cleavage was 0.04.
Variant GGCAGAGCUCACCACAGCGUGGCACAGUGGCUGUGGCUAGACUGGC [A12C A25C C45G] has a self-cleavage of 0.01.
For GGCAGAGCUCAGAACAGCGUGGCAAAGUGGGUGUGGCUAGACUGCC [A12G C13A C31G], the self-cleavage was 0.03.
GGCAGAGCUCACCACUGCGUGGCGAAGUGGCUGUAGCUAGACUGCC [A12C A16U A24G G35A] gave a self-cleavage of 0.
GGCAGAGCUCACCCCAGCGUGGCAAAGUAGCUGUGGCUAGACUGCC [A12C A14C G29A] showed a self-cleavage of 0.05.
In the case of GGCAGAGCUCACCACAGCGUGCCAAAGUGGCUGUGGCUAAACUGCC [A12C G22C G40A], the self-cleavage is reported as 0.03.
With GGCAGAGCUCUACACAGCGUGGCAAAGUGCCUGUGGCUAGAGUGCU [A11U G30C C42G C46U] the self-cleavage was 0.03.
Variant GGCAGAGCUCACGACAGCGUGGCAAAGUGGCUGUGCCUAGACUGCC [A12C C13G G36C] has a self-cleavage of 0.01.
